Results from publication PMC6919601, “Identification of Plasmodium dipeptidyl aminopeptidase allosteric inhibitors by high throughput screening” (PLoS ONE, 2019).
Several values for one entry are separate records, joined by “and”; a condition that tells them apart may be missing. Identical values can stand only once. In all, about 110,000 compounds went through this assay and about 230 (0.21%) showed an effect of 50% or more. This is one part of the list.

molecular target: DPAP1 (Plasmodium falciparum, UniProt Q8IIJ9); assay: primary screen, percent inhibition; read by cleavage of a fluorogenic dipeptide substrate; higher = more effect of the substance; parameters: species or system P. falciparum D10 trophozoite lysates; single well
Sequence (Q8IIJ9 whole entry, looked up): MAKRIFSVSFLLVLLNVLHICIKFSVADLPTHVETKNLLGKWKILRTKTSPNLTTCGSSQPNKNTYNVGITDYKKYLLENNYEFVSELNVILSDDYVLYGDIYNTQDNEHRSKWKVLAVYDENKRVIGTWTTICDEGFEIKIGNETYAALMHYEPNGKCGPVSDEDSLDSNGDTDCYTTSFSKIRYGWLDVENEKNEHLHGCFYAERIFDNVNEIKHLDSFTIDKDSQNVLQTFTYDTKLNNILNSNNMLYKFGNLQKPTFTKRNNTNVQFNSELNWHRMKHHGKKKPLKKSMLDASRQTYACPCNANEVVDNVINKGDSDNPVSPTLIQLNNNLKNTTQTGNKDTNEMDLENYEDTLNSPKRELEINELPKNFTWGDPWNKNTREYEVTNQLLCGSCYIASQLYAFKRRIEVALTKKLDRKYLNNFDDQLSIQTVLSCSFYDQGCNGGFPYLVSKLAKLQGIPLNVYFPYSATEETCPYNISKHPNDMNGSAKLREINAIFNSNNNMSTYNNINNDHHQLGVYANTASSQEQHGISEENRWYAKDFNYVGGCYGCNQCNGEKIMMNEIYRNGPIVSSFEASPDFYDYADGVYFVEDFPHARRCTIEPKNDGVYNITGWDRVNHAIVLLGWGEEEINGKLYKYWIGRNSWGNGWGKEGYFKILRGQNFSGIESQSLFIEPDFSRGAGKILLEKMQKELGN
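Also: 30 min substrate incubation versus DMSO and 10 µM JCP410 controls.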

Point of comparison: `CCCCN(C)Cn1[nH]c(=O)ccc1=O`, “% Inhibition @ 10 uM” value 3.24%. Against it:
- CCOc1ccc(N2CC(C(=O)NCCc3ccccc3)CC2=O)cc1 (stereo not drawn) — lower, 1.4%
- COc1ccc(-c2cc(C)no2)cc1S(=O)(=O)N(C)Cc1ccccc1 — lower, -1.54%
- O=C(Nc1ccc2nccnc2c1)N1CCCCCC1 — lower, -1.32%
- Cc1oc(-c2ccc(Cl)cc2)nc1CN1CCC(C(=O)N2CCN(c3ccccn3)CC2)CC1 — lower, 0.689%
- Cc1cccc(CSc2nc(O)c3c(C)cc(C)nc3n2)c1 — lower, 2.02%
- CC1(C)C(C=C(Cl)Cl)C1C(=O)Nc1sc2c(c1C#N)CCCC2 (stereo not drawn) — lower, 1.25%
- Cc1cc(C)c2nc(-c3ccco3)cc(C(=O)O)c2c1 — higher, 5.24%
- Cc1ccc(C2=NN(S(=O)(=O)c3ccccc3)C(c3ccco3)C2)cc1 (stereo not drawn) — lower, -8.2%
- CCCN1CCC(N2CCCC(CO)C2)CC1 (stereo not drawn) — lower, 0.472%
- O=C(CCN1CCN(CCO)CC1)Nc1ccc(C2CCCC2)cc1 — lower, -6.02%
- O=C(CNS(=O)(=O)c1ccc(Br)s1)NC1CCCc2ccccc21 (stereo not drawn) — lower, -4.07%
- COc1ccc(OC)c(N(CC(=O)NC2CC3CCC2C3)S(=O)(=O)c2ccc(C)cc2)c1 (stereo not drawn) — lower, -6.24%
- O=C1CCCC2=C1C(c1ccc(F)cc1)Nc1ccc3ncccc3c12 (stereo not drawn) — higher, 13.8%
- COc1ccccc1NC(=O)NC(N)=O — lower, -0.807%
- CCN(CC)C(=O)c1cc(-c2ccc(Cl)c(Cl)c2)on1 — lower, -5.77%
- CCN(C(=O)Cc1ccccc1)C1CCCCC1 — lower, -3.42%
- O=C(NC12CC3CC(CC(C3)C1)C2)c1cnn2c(C(F)(F)F)cc(-c3ccccc3)nc12 — lower, -0.441%
- CC1(C)CC2=Nc3ccccc3NC(c3ccccc3)C2=C(O)C1 (stereo not drawn) — lower, 2.13%
- CC(=O)NCC1Cc2ccccc2Sc2ccccc21 (stereo not drawn) — lower, -4.69%
- CC1=NC2=C(C(=O)CC(C)(C)C2)C(c2cccc(F)c2)/C1=C(\O)OC(C)C (stereo not drawn) — lower, -0.807%
- CC1=C(C(=O)Nc2ccccc2C)C(c2ccccc2F)C2=C(O)CCCC2=N1 (stereo not drawn) — higher, 5.66%
- Cc1c(-c2ccccc2)oc(-c2ccccc2)c(C)c1=O — lower, -2.02%
- C=CCNC(=O)c1cc(-c2ccc(C)c(C)c2)nc2ccccc12 — lower, 1.16%
- CN1C(=O)c2ccccc2C(C(=O)NCc2cccc(Cl)c2)C1c1cccs1 (stereo not drawn) — lower, 2.19%
- CCCCCCNC(=O)c1cnc2ccc(S(=O)(=O)N3CCCCC3c3cccnc3)cc2c1O (stereo not drawn) — higher, 3.47%
- N#Cc1ccc(N2C(=O)C3C4C=CC(C4)C3C2=O)c(Cl)c1 (stereo not drawn) — lower, -3.45%
- COc1ccccc1N1CCN(C(=O)CN(C2CCCCC2)S(=O)(=O)c2ccc(C)cc2)CC1 — lower, -5.19%
- CCn1cc(/C=C(\NC(=O)c2ccccc2Cl)C(=O)NCCO)c2ccccc21 — lower, -3.52%
- CN(C)CCCNC(=O)c1cc(Sc2ccc(F)cc2)nc2ccccc12 — lower, 2.7%
- CCOc1ccccc1C1NC(=O)NC(C)=C1C(=O)OC1CCCC(C)C1 (stereo not drawn) — higher, 16.9%
- COc1cc(-c2nnc3sc(COc4ccc(Cl)cc4)nn23)cc(OC)c1OC — higher, 6.01%
- CCc1nc(SC)ncc1C(=O)NC(C)CCc1ccccc1 (stereo not drawn) — higher, 6.16%
- C=CCSC1=C(C#N)C(c2ccc(Cl)cc2Cl)CC(=O)N1 (stereo not drawn) — lower, 2%
- O=C(c1cc2nc(-c3ccco3)cc(C(F)(F)F)n2n1)N1CCN(c2ccccc2)CC1 — lower, -5.62%
- CCOCCCNC(C)Cc1ccccc1F (stereo not drawn) — lower, -3.5%
- COc1ccccc1NC(=O)/C(=C\c1ccc(Cl)cc1)NC(=O)c1ccccc1 — lower, 2.45%
- O=C(Cc1coc2ccc3ccccc3c12)N1CCCC1 — lower, 2.01%
- CCN1CCN(c2c(S(=O)(=O)c3ccccc3)cnc3ccc(OC)cc23)CC1 — lower, -6.24%
- O=C(NC12CC3CC(CC(C3)C1)C2)N1CCN(C(=O)C2CCCO2)CC1 (stereo not drawn) — lower, 1.64%
- COc1ccc(NC2=NC(=O)/C(=C/c3ccc(N4CCCCC4)o3)S2)cc1 — lower, -16.1%
- COc1ccc(-c2[nH]c(-c3ccc(C(=O)O)cc3)nc2-c2ccccc2)cc1OC — lower, -1.6%
- NC(=O)c1cc(-c2ccc(Cl)cc2)no1 — higher, 9.47%
- COC(=O)c1ccc(CN2CCCC2)cc1 — lower, -5.31%
- CN(C(=O)c1ccccc1Br)c1ccccc1 — lower, 1.83%
- CCS(=O)(=O)N1CCC2(CC1)OC(=O)C(C)=C2C(=O)NC1CCN(Cc2ccccc2)CC1 — lower, 0.00978%
- CSc1ccc(CN2CCN(c3cccc(Cl)c3)CC2)cc1 — lower, 0.847%
- CC1CC(C)CN(Cc2nc3c(c(=O)n(C)c(=O)n3C)n2CC(N)=O)C1 (stereo not drawn) — lower, -3.23%
- O=C(Nc1ccc(F)c(F)c1)c1cccc(OC(F)F)c1 — lower, -4.15%
- CC(=O)c1ccc(C(=O)N(CCCN(C)C)c2nc3c(F)cccc3s2)cc1 — lower, -2.95%
- Cc1nn(CC(=O)Nc2sc3c(c2C(N)=O)CCCC3)c(C)c1Cl — higher, 4.31%
- CCSC1=NSC2=NC(=O)/C(=C\c3cc(OC)c(O)c(OC)c3)C(=N)N12 — lower, 1.07%
- O=C1CCC(N2Cc3ccccc3C2=O)C(=O)N1 (stereo not drawn) — lower, -24.6%
- CCN(CC)C(=O)C1CCCN(Cc2ccc(Br)o2)C1 (stereo not drawn) — lower, -0.828%
- O=C(NCc1ccc2c(c1)OCO2)c1ccc2snnc2c1 — lower, -9.25%
- CCCOc1cccc(C(=O)Nc2ccc(NC(=O)c3cccs3)cc2)c1 — lower, -2.31%
- Cc1cc2[nH]c3cc(C)c(C)cc3c2cn1 — lower, -7.4%
- COc1ccc(-c2nc(C#N)c(NCCN(C)C)o2)cc1 — lower, -3.23%
- C=CCN1C(=O)CC(C(=O)OCC)=C1C — lower, 1.72%
- COc1ccc(-c2nnc(SCC(N)=O)n2-c2cccc(C(F)(F)F)c2)cc1OC — lower, -4.97%
- Cc1ccc(-n2c(C)cc(C=C3C(=O)c4ccccc4C3=O)c2C)nc1 — lower, 2.16%
- Clc1ccc(-c2nnc(NCCN3CCCC3)c3ccccc23)cc1 — lower, -5.47%
- CCOc1ccc(-c2[nH]nc3c2C2(C(=O)Nc4ccccc42)C(C#N)=C(N)O3)cc1OC (stereo not drawn) — lower, -1.98%
- Cc1cc(O)c(C(=O)/C=C/c2ccc(O)cc2)c(=O)o1 — lower, -0.415%
- CCN(CC)Cc1c(C=O)sc2c1CCCC2 — lower, -4.21%
- O=C(CSc1ccc(-c2cccs2)nn1)N1CCCC1 — lower, -5.26%
- CC(C)(C)c1ccc(Oc2coc3cc(O)ccc3c2=O)cc1 — lower, -8.33%
- c1ccc(Oc2ccc(-n3nnc(-c4ccccc4)n3)cc2)cc1 — lower, 0.00706%
- c1ccc(-c2cn3c4c(sc3n2)CCCC4)cc1 — lower, -3.09%
- COCc1cc(O)n2nc(SC)nc2n1 — lower, 2.31%
- CC1=C(C)CC(C(=O)Nc2cccc(Cl)c2)C(C(=O)O)C1 (stereo not drawn) — lower, 0.924%
- CC1CCC2C(=O)N(Cc3ccccc3)C(=O)C2C1 (stereo not drawn) — lower, -6.25%
- O=S(=O)(NCCCCCc1nc2ccccc2[nH]1)c1ccc(Cl)c(Cl)c1 — higher, 5.3%
- Cc1nnc(NC(=O)CC(CN(C)S(=O)(=O)c2ccccc2)c2ccccc2)s1 (stereo not drawn) — lower, -2.63%
- Cc1nc2sc3c(S)ncnc3c2c2c1CCCC2 — higher, 6.1%
- CCC(Cc1ccccc1)NC(=O)C1CCC(C/N=c2/c(N3CCCC3)c(O)c2=O)CC1 (stereo not drawn) — lower, -0.447%
- O=c1c2ccccc2nc(/C=C/c2ccc(Br)cc2)n1CCO — lower, -1.65%
- CC1=C(c2ccc(Cl)cc2)S(=O)(=O)N=C1N1CCC(Cc2ccccc2)CC1 — lower, -2.85%
- Cn1ccc(C#CC(=O)c2ccccc2)n1 — higher, 4.63%
- O=C(c1cc(-c2cccs2)nc2ccccc12)N1N=C(C(F)F)CC1(O)C(F)F (stereo not drawn) — lower, -7.01%
- O=C(NCCC(c1ccccc1)c1ccccc1)c1cccnc1Cl — lower, -0.865%
- Clc1cccc(-n2ncc3c(NCc4cccnc4)ncnc32)c1 — lower, -1.62%
- CCCCN1C(=O)CC(Sc2ncccc2C(=O)O)C1=O (stereo not drawn) — higher, 5.7%
- CC1=C(c2ccc(C)c(C)c2)S(=O)(=O)N(Cc2ccc(C(=O)N3CCC(C(N)=O)CC3)cc2)C1=O — higher, 5.46%
- CCn1cc(C=C2C(=O)NC(=S)NC2=O)c2ccccc21 — higher, 9.57%
- N#CC1=C(N)Oc2cc(N)ccc2C1c1ccc(Br)cc1 (stereo not drawn) — lower, -0.261%
- CN(CCCNC(=O)c1cn(C2CCCC2)c(=O)c2c1c1ccccc1n2C)Cc1ccccc1 — lower, -3.39%
- Cc1ccc(N2CC(C(=O)Nc3ccc(Cl)cc3F)CC2=O)cc1 (stereo not drawn) — lower, -1.04%
- Cc1cc(O)c(C2=NCCSC(c3ccccc3Br)C2)c(=O)o1 (stereo not drawn) — lower, 2.6%
- C=CCNC(=O)c1c(C)cc(C)cc1C — lower, 2.92%
- CC(C)Sc1nc2c(c(=O)[nH]c(=O)n2C)n1Cc1ccc(Cl)cc1 — lower, -4.49%
- CCOc1cccc2cc(-c3cn4c(n3)sc3cc(OC)ccc34)c(=O)oc12 — lower, -2.92%
- CCCCC(C(=O)Nc1ccc(OC)cc1)N1C(=O)c2ccccc2C1=O (stereo not drawn) — lower, -1.07%
- Cc1cc2ncn(C(=O)CCCOc3ccccc3)c2cc1C — higher, 5.3%
- CCOc1ccc(NC(=O)CSc2nc(O)cc(C(F)(F)F)n2)cc1 — lower, -2.68%
- CC(C)(C)c1cc(O)c2oc(=O)c(C(=O)O)cc2c1 — higher, 6.07%
- O=C(NCCN1CCCC1)c1ccc(Cn2c(SCc3ccc(F)cc3)nc3ccncc32)cc1 — higher, 4.53%
- Cc1cc(-c2ccc(S(=O)(=O)NC(C)(C)C)s2)on1 — lower, -0.342%
- CCCCNC(=O)c1ccc(CN2CCOCC2)cc1 — lower, -6.43%
- CCCCC(NC(=O)C(CCCC)NC(=O)OCc1ccccc1)C(=O)CO (stereo not drawn) — lower, -7.36%
- Cc1ccccc1N1C(=O)c2ccccc2NC1c1ccc2c(c1)OCO2 (stereo not drawn) — lower, -2.67%

For `Cn1cc(Br)c(C(=O)NCc2cc3cc(Cl)ccc3[nH]2)n1`, the “% Inhibition @ 10 uM” value was 0.408% and -2.07%.
